According to PubChem BioAssay AID652104 (National Center for Advancing Translational Sciences (NCATS), 2013):
The whole screen tested about 410,000 compounds, of which about 7,200 (1.8%) were called active. The inconclusive results got no clear call from the source; some entries with a clear call stand among them for comparison. Calls follow the shape of the dose curve; as a rule, active = well fitted activation curve with a large enough effect; inconclusive = small, poorly fitted or top-dose-only effect, or another doubt; inactive = no such curve, though single readings can be large or run the other way. Potencies of inconclusive entries are doubtful fits and often do not repeat.

Experiment: qHTS of TDP-43 Inhibitors; also: nearly all actives have a fitted effect of over 50% in size; as to growth rescue (activation): % of control where 0% means no effect
Details: TDP-43 expressing yeast growth rescue, BacTiter-Glo, 24 h; growth rescue (activation): at 46.1 µM (top of the series) unless noted
In short: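 Cell-based yeast growth screen: TDP-43 expression induced in galactose, inoculum OD600=0.02 after raffinose pregrowth to mid-log. Read-out BacTiter-Glo luminescence at 24 hr, 30 deg C; inhibition of toxicity seen as signal increase.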
Potency is read from the fitted curve at half-maximal effect; tags tell the direction and shape of the fitted curve.

SMILES | Potency | growth rescue (activation)
Cc1ccc2oc(C(=O)N(Cc3sccc3C)C3CCS(=O)(=O)C3)c(C)c2c1 (stereo not given) | inconclusive: 15.8 µM [activator, partial curve, poor fit] | –
Cc1cc(C)c2c(c1)/C(=C/C(=O)c1ccc(Br)s1)C(=O)N2 | active: 17.8 µM | –
CCCCN(C)C(=O)CSc1nc2ccccc2nc1Cc1ccc(C)cc1 | inconclusive: 11.2 µM [activator, single point] | –
Cc1cc(C)c(NC(=O)c2sc3nc4c(cc3c2N)C(=O)CC(C)(C)C4)c(C)c1 | active: 20 µM | –
COc1ccc(OCC(=O)Nc2cccc(OC)c2)cc1 | inconclusive: 2.51 µM [activator, partial curve] | –
CC1CCCCC1NC(=O)COC(=O)c1ccc(N(C)C)cc1 (stereo not given) | active: 15.8 µM | –
Cc1ccc2[nH]c(=O)c3cc(C(=O)NC4CCC(C)CC4)sc3c2c1 (stereo not given) | inactive | –
N#C/C(=C\c1cccnc1)c1ccc([N+](=O)[O-])cc1 | active: 11.2 µM | –
Cc1ccc(-c2noc(CSc3nnc(C)n3-c3ccc(C)c(C)c3)n2)cc1 | active: 35.5 µM | –
Cn1c(CNc2ccc(Cl)cc2)nnc1SCc1ccccc1 | inconclusive: 3.55 µM [activator, partial curve, poor fit] | –
Cc1ccc2c(c1)OC(c1ccc3c(c1)OCCO3)CC2=O (stereo not given) | inconclusive: 10 µM [activator, partial curve] | –
C/C(=C/c1ccccc1)C(=O)N1CCN(c2ccccc2F)CC1 | inconclusive: 25.1 µM [activator, single point] | –
COc1ccc(-c2[nH]ncc2-c2ccc(Cl)cc2)c(O)c1 | inconclusive: 31.6 µM [activator, single point] | –
COc1ccc(CCNC(=O)COc2ccc3c(c2)OCO3)cc1 | inconclusive: 11.2 µM [activator, partial curve] | –
Cc1cccc(Oc2ccc(NC(=O)c3ccccc3C(=O)O)cc2)c1C | inconclusive: 11.2 µM [activator, partial curve] | –
COc1ccc(/C(N)=N/OC(=O)/C=C/c2ccccc2)cc1 | inconclusive: 5.62 µM [activator, single point] | –
O=C(Nc1cccc(F)c1)C1CCCN(S(=O)(=O)c2ccccc2)C1 (stereo not given) | inconclusive: 35.5 µM [activator, single point] | –
CCCSc1nc(N)nc(-c2cccs2)c1C#N | inconclusive: 4.47 µM [activator, full curve] | –
O=C(CC(=O)Nc1cccc(Cl)c1Cl)Nc1cccc(Cl)c1Cl | inconclusive: 28.2 µM [activator, partial curve] | –
CCCCC(=O)Nc1nnc(S(=O)(=O)N(C)Cc2ccccc2)s1 | inconclusive: 31.6 µM [activator, partial curve] | –
CN(C)c1ccc(CNC(=O)C2CCN(Cc3cc4ccccc4n3Cc3ccccc3)CC2)cc1 | – | inactive: 1.89% [at 9.22 µM]
COCCn1c(SCc2nnc(-c3ccccc3)o2)nc2sc3c(c2c1=O)CCC3 | inconclusive: 25.1 µM [activator, single point] | –
CCSc1nnc2c(n1)OC(c1ccc(OC)c(OC)c1)N(C(C)=O)c1ccccc1-2 (stereo not given) | inconclusive: 0.316 µM [activator, full curve, poor fit] | –
COc1ccccc1C1CC(=O)Oc2ccc(C(C)(C)C)cc21 (stereo not given) | inconclusive: 11.2 µM [activator, partial curve, poor fit] | –

SMILES | Potency | growth rescue (activation)
O=C(Nc1ccccc1Cl)c1ccccc1CC(O)(c1ccccc1)c1ccccc1 | inactive | –
Cc1ccccc1NC(=S)NCCc1ccccc1 | inconclusive: 28.2 µM [activator, partial curve] | –
COc1ccc(NS(=O)(=O)c2cccc3ccccc23)cc1 | active: 11.2 µM | –
O=C(Nc1ccc2c(c1)OCO2)c1ccc(Br)c(S(=O)(=O)N2CCCC2)c1 | inconclusive: 25.1 µM [activator, single point] | –
COc1ccccc1CNC(=O)COCc1cc(-c2ccc3c(c2)OCO3)on1 | active: 22.4 µM | –
COc1ccc(/C=C(\C#N)c2nc3ccccc3c(=O)[nH]2)cc1OC | inactive | –
Cc1c(C(=O)NCc2cccc(C(F)(F)F)c2)sc(=O)n1Cc1cccc(F)c1 | inconclusive: 12.6 µM [activator, partial curve] | –
Cc1ccc(-c2cc(C(F)(F)F)n3ncc(-c4ccccc4)c3n2)cc1 | inconclusive: 3.98 µM [activator, partial curve] | –
O=C(COc1ccc(Cl)cc1)NCCSCc1cccc(Cl)c1 | active: 15.8 µM | –
C/C(=N\NC(=S)NCCc1ccccc1)c1cccc(Br)c1 | inconclusive: 11.2 µM [activator, partial curve] | –
Cc1ccc(C(=O)Nc2nnc(-c3ccncc3)o2)cc1 | inactive | –
CC1CC(N(C(=O)c2ccc(Cl)cc2)c2ccccc2)c2ccccc2N1C(=O)c1ccco1 (stereo not given) | inconclusive: 25.1 µM [activator, single point] | –
O=C(NCCc1ccccc1)c1ccc(Cl)cc1[N+](=O)[O-] | active: 11.2 µM | –
O=C(Nc1ccc(Br)cc1)N1CCCCCCC1 | inactive | –
O=C(Nc1ccc(F)cc1F)N1CCCCCC1 | inactive | –
COc1ccc(C2CC(c3ccccc3)=NN2c2ccc(/C=N/NC(=O)c3ccncc3)cc2)cc1 (stereo not given) | inconclusive: 31.6 µM [activator, single point] | –
O=C(Cc1ccc(F)cc1)OCN1C(=O)c2ccccc2C1=O | inconclusive: 15.8 µM [activator, single point] | –
O=C(NCc1ccc(Cl)cc1)NC1COc2ccccc2C1 (stereo not given) | inactive | –
CN(CC(=O)Nc1cccc(F)c1)C(=O)/C=C/c1ccc(Br)s1 | inactive | –
COc1ccc(-c2cc(-c3cc(OC)ccc3O)[nH]n2)cc1 | active: 25.1 µM | –
O=C(Nc1ccc(Cl)c(-c2nc3ccccc3o2)c1)c1cccc2c(Cl)cccc12 | inactive | –
COc1ccc(C(=O)Cc2ccc(F)cc2)c(OC)c1 | inconclusive: 35.5 µM [activator, partial curve] | –
COc1cccc(-c2ccc3c(N)c(C(=O)c4ccc(F)cc4)sc3n2)c1 | inconclusive: 12.6 µM [activator, partial curve] | –
CC(NC(=O)CCCN1C(=O)CCn2nc(-c3cn(C)c4ccccc34)cc21)c1ccccc1 (stereo not given) | inactive | –

SMILES | Potency | growth rescue (activation)
C=CC[C@@H](CC(=O)N[C@@H](CO)Cc1ccccc1)C(=O)N[C@@H](C)COC(=O)[C@@H](CC=C)Cc1ccc(F)cc1 | inactive | –
O=C1CN(C(=O)COC(=O)c2ccc([N+](=O)[O-])s2)c2ccccc2N1 | inconclusive: 7.94 µM [activator, partial curve] | –
O=C(N/N=C\c1cc(Br)c(Br)o1)C1COc2ccccc2O1 (stereo not given) | active: 11.2 µM | –
CCOc1ccc2nc3c(cc2c1)CN(CCCO)C(=NCCOC)S3 | inconclusive: 15.8 µM [activator, single point] | –
CCN(CC)C(=S)Nc1ccc(Cl)c(Cl)c1 | inconclusive: 15.8 µM [activator, single point] | –
N#Cc1c(N2CCN(c3ccc([N+](=O)[O-])cc3)CC2)[n+](=O)c2ccc(Cl)cc2n1[O-] | inconclusive: 0.562 µM [activator, full curve, poor fit] | –
Cn1cc(CC(=O)NCc2ccc(F)cc2)c2ccccc21 | inconclusive: 35.5 µM [activator, single point] | –
COC(=O)c1ccc([C@H]2Nc3ccc(S(=O)(=O)Nc4ccc(F)cc4)cc3[C@H]3C=CC[C@H]32)cc1 | – | inconclusive: 32.2% [activator] [at 9.22 µM]
O=C(C1CC1)N1CCc2cc(S(=O)(=O)NCCC3=CCCCC3)ccc21 | inconclusive: 35.5 µM [activator, single point] | –
O=C(Nc1ccc2c(c1)OCCO2)C(c1ccccc1F)n1c(=O)c(-c2ccco2)nc2ccccc21 (stereo not given) | inconclusive: 17.8 µM [activator, partial curve] | –
CCOC(=O)c1ccc(N2CCN(c3ccc(F)cc3)CC2)c(NC(=O)Nc2ccc(CC)cc2)c1 | inactive | –
COc1ccc(-c2ccc(NS(=O)(=O)c3cc([N+](=O)[O-])c(C)c([N+](=O)[O-])c3)cc2)nn1 | inconclusive: 17.8 µM [activator, partial curve] | –
CC(=O)N1CCn2c3c(c4cc(C)ccc42)CCCC31 (stereo not given) | inconclusive: 12.6 µM [activator, partial curve] | –
CN(C)c1ncc(C(=O)NCc2ccccc2Cl)cn1 | inconclusive: 20 µM [activator, partial curve] | –
O=C(Nc1ccc(Cl)c(Cl)c1)N(Cc1c[nH]c2ccccc12)C1CCCCC1 | inconclusive: 3.16 µM [activator, single point] | –
O=C(c1cc(-c2cccs2)on1)N1CCN(c2ccccc2)CC1 | active: 11.2 µM | –
COc1ccc(OCC(O)CN(CCO)CC(O)Cn2ccc3ccccc32)cc1 (stereo not given) | inactive | –
O=C(/C=C/c1ccc2c(c1)OCCO2)c1ccc(O)cc1 | inconclusive: 22.4 µM [activator, single point] | –
CCOC(=O)c1cc2occc2n1CC(=O)N1CCN(C(=O)c2ccco2)CC1 | inactive | –
CCOC(=O)c1c(C)oc2nc(C)nc(N(C)Cc3ccccc3)c12 | inconclusive: 15.8 µM [activator, single point] | –
CC(C)c1ccc(/C=C/C2=NNC(=O)CC2)cc1 | active: 11.2 µM | –
COc1ccc(NC(=O)CSc2nc3c(oc4ccccc43)c(=O)n2-c2ccccc2)cc1OC | inconclusive: 6.31 µM [activator, partial curve] | –
